According to PubChem BioAssay AID651820 (National Center for Advancing Translational Sciences (NCATS), 2012):
Out of some 340,000 compounds screened, about 12,000 (3.5%) were called active. This list was built around the results that the source calls inconclusive (neither active nor inactive); the mix of calls is not that of the screen. Calls come from the whole dose curve; as a rule, active = well fitted inhibition curve with a large enough effect; inconclusive = small, poorly fitted or top-dose-only effect, or another doubt; inactive = no such curve, though single readings can be large or run the other way. No potency is given beside an inconclusive call; the fits are too rough.

Experiment: qHTS Assay for Inhibitors of Hepatitis C Virus (HCV)
Conditions: Huh7.5.1 HCVcc-Cre (HCVcc is cell-culture hepatitis C virus) infection, luciferase reporter, 44 h; activity change, negative = inhibition: at 41.8 µM (top of the series) unless noted
Outline: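 Whole-lifecycle infectious HCVcc-Cre system; cells 1,000/well, compound then virus (~0.5 moi) added 4 h after plating, 44 h culture. Luciferase read 15 sec following 15 min substrate incubation, room temp.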
% is set by controls: 0 for no effect and ±100 for the full control effect; potency is the fitted concentration of half-maximal effect; tags give direction and shape of the fitted curve.

Row | Structure (SMILES) | Potency | activity change, negative = inhibition
1 | CCCCN1CC[C@H]2C=CC[C@@H](C(=O)N3CCOCC3)[C@H]2C1=O | active: 0.562 µM | –
2 | COc1ccc(-c2csc3nc(-c4cccnc4)nc(Cl)c23)cc1OC | inconclusive [inhibitor, partial curve] | –
3 | COc1cc(C2c3c(c(C)c(C)oc3=O)Oc3c(C)c(C)oc(=O)c32)ccc1OS(=O)(=O)c1ccc(C)cc1 | inconclusive [inhibitor, single point] | –
4 | COc1ccccc1NC1=C(NC(C)=O)C(=O)c2ccccc2C1=O | inconclusive [inhibitor, single point] | –
5 | Cc1ccc2c(CSc3nc4ccccc4c(=O)n3CCCO)cc(=O)oc2c1 | inconclusive [inhibitor, partial curve] | –
6 | CCn1c(=O)[nH]c2cc(C(=O)Nc3cc(C)cc(C)c3)ccc2c1=O | inconclusive [inhibitor, partial curve, poor fit] | –
7 | CN(C)CCCn1cnc2c(c1=N)C(c1ccccc1)c1ccc3ccccc3c1O2 (stereo not given) | active: 8.91 µM | –
8 | CC1CCN(S(=O)(=O)c2ccc3c(c2)c(=O)c(C(=O)NCc2ccco2)cn3C)CC1 | – | inactive: -20.3%
9 | CCn1c(CNc2ccc(F)cc2)nnc1SCC(=O)Nc1ccccc1OC | inconclusive [inhibitor, partial curve] | –
10 | CCOc1cc(NC(=S)NCCCN2CCOCC2)c(OCC)cc1NC(=O)c1ccc(C)cc1 | inconclusive [inhibitor, partial curve] | –
11 | Cc1cccc(C)c1OCC(=O)Nc1cccc(S(=O)(=O)N2CCCC2)c1 | active: 8.91 µM | –
12 | COc1ccccc1CCN1CCCC(CN(C)Cc2ccc(OCCO)cc2)C1 (stereo not given) | inconclusive [inhibitor, single point] | –
13 | COc1ccc(C(=O)Nc2cc(C(=O)NCCc3ccccc3)ccc2Cl)cc1 | active: 8.91 µM | –
14 | CCOC(=O)c1c(N)sc2c1CCSC2 | inconclusive [inhibitor, partial curve] | –
15 | C/C(CCC12CC3CC(CC(C3)C1)C2)=N\NC(N)=S | active: 11.2 µM | –
16 | O=C(COC(=O)C12CC3CC(CC(O)(C3)C1)C2)Nc1ccc(Cl)c(S(=O)(=O)N2CCOCC2)c1 | – | inactive: 0.312%
17 | Cc1ccc(S(=O)(=O)Oc2ccccc2[N+](=O)[O-])cc1 | – | inactive: 3.81%
18 | CCCCCC(=O)Nc1c(-c2ccc(OC)cc2)c(=O)c2ccccc2n1C | – | inactive: -6.13%
19 | CCc1ccc2[nH]c3nc(SCC(=O)NNC(=O)c4ccc(C(C)(C)C)cc4)nnc3c2c1 | inconclusive [inhibitor, single point] | –
20 | COc1ccc(C(=O)O/N=C(\N)c2ccc(OC)c(OC)c2)c(OC)c1 | active: 12.6 µM | –
21 | CCN1CCCC1CNC(=O)C1CCN(C(=O)c2cc3sccc3n2Cc2ccc(F)cc2)CC1 (stereo not given) | inconclusive [inhibitor, single point] | –
22 | O=C(Nc1ccccc1)c1ccc(S(=O)(=O)NCc2ccco2)cc1 | inconclusive [inhibitor, single point] | –
23 | COc1cc(C(=O)NCc2nnc(SCC(=O)Nc3c(C)cc(C)cc3C)o2)cc(OC)c1OC | inconclusive [inhibitor, single point] | –
24 | CC(C)(C)c1cc(NCCCn2ccnc2)n2ncc(-c3ccccc3)c2n1 | inconclusive [inhibitor, full curve] | –

Row | Structure (SMILES) | Potency | activity change, negative = inhibition
25 | CCN(CC)CCNc1nc(-c2ccc(OC)cc2)c(-c2ccc(OC)cc2)s1 | inconclusive [inhibitor, single point] | –
26 | Cc1ccc(-c2cc(C(F)F)n3ncc(C(=O)N4CCN5CCCC5C4)c3n2)cc1 (stereo not given) | inconclusive [inhibitor, partial curve] | –
27 | c1csc(CNc2nc(-c3cccs3)nc3ccccc23)c1 | inconclusive [inhibitor, single point] | –
28 | COCCn1c(=O)c2ccccc2c2ccccc2c1=O | – | inactive: -0.125%
29 | CCOC(=O)c1cc(-c2ccc3c(c2)OCCO3)nc2c1c(C)nn2CCC#N | inconclusive [inhibitor, partial curve] | –
30 | CCOc1ccc2nc(SCC(=O)N(CCOC)c3c(N)n(Cc4ccccc4)c(=O)[nH]c3=O)[nH]c2c1 | inconclusive [inhibitor, single point] | –
31 | COc1cc(CNc2nc3ccccc3[nH]2)cc(OC)c1OC | inactive | –
32 | O=C(NC1(C(F)(F)F)Oc2ccccc2O1)N1CCCC1 | inconclusive [inhibitor, partial curve, poor fit] | –
33 | CN(C)c1ccc(/C=N/NC(=O)CN(c2ccccc2Cl)S(C)(=O)=O)cc1Br | inconclusive [inhibitor, partial curve] | –
34 | Cc1c(C(=O)N(C)C)c2cc(Cl)ccc2n1O | inconclusive [inhibitor, single point] | –
35 | COC(=O)c1cccc(-n2nnnc2SCC(=O)Nc2cc(C)on2)c1 | – | inactive: 8.15%
36 | O=C(Nc1cccc(-c2csc(Nc3ccccc3)n2)c1)c1cc([N+](=O)[O-])cc(C(F)(F)F)c1 | inconclusive [inhibitor, partial curve] | –
37 | O=C(COc1ccc(Cl)cc1)Nc1ccc2[nH]ncc2c1 | inconclusive [inhibitor, partial curve] | –
38 | O=C(COC(=O)Cc1ccccc1F)Nc1cccc(S(=O)(=O)NC2=NCCCCC2)c1 | – | inactive: -6.18%
39 | N/C(=N\OC(=O)C(c1ccccc1)c1ccccc1)c1ccccn1 | – | inactive: -16.9%
40 | Cc1ccc(OCCC(=O)Nc2ccc(F)c(Cl)c2)cc1 | – | inactive: -6.49%
41 | Cc1ccc(C)c(OCCC(=O)OCC(=O)Nc2ccc(N3CCOCC3)cc2)c1 | inconclusive [inhibitor, single point] | –
42 | CCCCCOc1ccc2oc(=O)c3c(c2c1)CCCN3C(=O)CN1CCCC(C(=O)OCC)C1 (stereo not given) | inconclusive [inhibitor, single point] | –
43 | COc1ccc(CNCC(O)(c2ccccc2)c2ccc(F)cc2)cc1 (stereo not given) | – | inactive: 7.94%
44 | Cc1nc(SCC(=O)N2CCN(c3ccccc3)CC2)c2oc3ccccc3c2n1 | active: 10 µM | –
45 | O=C1C(Cc2ccccc2)Nc2ncnc(N3CCCCC3)c2N1Cc1ccc(Cl)cc1 (stereo not given) | – | inactive: -5.64%
46 | CC(=O)Oc1ccccc1C(=O)NC(C)CCc1ccccc1 (stereo not given) | inconclusive [inhibitor, single point] | –
47 | COc1cc(-c2noc(C)c2-c2ccc(N(C)C)nc2)cc(OC)c1OC | – | inactive: 2.24%
48 | COc1ccccc1N(CC(=O)N(CC(C)C)CC(C)C)S(=O)(=O)c1cccs1 | inconclusive [inhibitor, single point] | –

Row | Structure (SMILES) | Potency | activity change, negative = inhibition
49 | CCOC(=O)c1cnc(SC)nc1N | – | inactive: 7.32%
50 | COc1cc(C)c(CN2CCC(Oc3ccc(C(=O)N4CCCC4)cc3)CC2)cc1C | inconclusive [inhibitor, full curve, poor fit] | –
51 | COc1cccc(NC(=O)CN(C)C(=O)/C=C/c2cn(-c3ccccc3)nc2-c2ccc(OC)c(OC)c2)c1 | inconclusive [inhibitor, single point] | –
52 | C=CCNC(=S)/N=c1/ccccn1Cc1ccccc1 | inconclusive [inhibitor, single point] | –
53 | CCN=C1S/C(=C\c2ccc(OCC)c(OC)c2)C(=O)N1CC | inconclusive [inhibitor, partial curve] | –
54 | Cn1cc(/C=N/n2cnc3sc4c(c3c2=O)CCCC4)c2ccccc21 | inconclusive [inhibitor, partial curve] | –
55 | Cc1ccccc1N(CC(=O)NCc1ccco1)C(=O)CNS(=O)(=O)c1ccc(F)cc1 | – | inactive: -3.83%
56 | C=CCc1c(C)nc2c(OC)cccc2c1Cl | inconclusive [inhibitor, single point] | –
57 | CC(=O)N1CCN2C(=O)C1CCCC(=O)c1cc(C(C)C)ccc12 (stereo not given) | – | inactive: 19.9%
58 | Cc1ccc(C(NC(=O)N2CCCCC2)=C(Cl)Cl)cc1F | inconclusive [inhibitor, single point] | –
59 | COC(=O)c1c[nH]c2c1-c1cc(C(=O)OCc3ccccc3)n(S(=O)(=O)c3ccc(C)cc3)c1C(=O)C2=O | inconclusive [inhibitor, full curve] | –
60 | COc1cc(/C=N/Nc2ccccc2[N+](=O)[O-])cc(OC)c1O | inconclusive [inhibitor, partial curve, poor fit] | –
61 | COc1ccc(N2CCN(c3cc(C)nc4ccc(OC)cc34)CC2)cc1 | active: 6.31 µM | –
62 | C=CCNc1ccccc1S(=O)(=O)NCc1ccccc1 | inconclusive [inhibitor, single point] | –
63 | N/C(=N\OC(=O)c1cc(-c2ccccc2)nc2ccccc12)c1ccccn1 | inconclusive [inhibitor, single point] | –
64 | Cc1cc(C)nc(/N=C(\N)Nc2ccccc2-c2ccccc2)n1 | inconclusive [inhibitor, partial curve] | –
65 | CCOc1ccc2nc(NC(=O)CSC3=NCCS3)sc2c1 | active: 8.91 µM | –
66 | CC(C)c1ccc(/C=N/NC(=O)c2nnn(-c3nonc3N)c2CN2CCOCC2)cc1 | – | inactive: -18.7%
67 | CCOc1ccc(NC(=O)CN(C)C(=O)CSCc2cccc(C)c2)cc1OCC | inconclusive [inhibitor, partial curve, poor fit] | –
68 | Cc1ccc(OCCOCCn2ccnc2)c(Br)c1 | inconclusive [inhibitor, single point] | –
69 | CC1CCCN(C(=O)Cn2nnc(-c3ccc(N(C)C)cc3)n2)C1 (stereo not given) | – | inactive: -2.17%
70 | CC1CC(C)CN(S(=O)(=O)c2ccc(NC(=O)CN3CCCCCC3)cc2)C1 (stereo not given) | inconclusive [inhibitor, single point] | –
